This passage reports growth inhibition call results from the antibiotic and cytotoxicity screens of Wong et al. (2023).

Molecules are shown by their SMILES. This is one part of the list.

The assay has as its system S. aureus RN4220. Kind of assay: growth inhibition call (relative growth <= 0.2). As to conditions: 50 µM.
As to `C[C@@H]1CCCCO[C@H](CN(C)Cc2ccncc2)[C@H](C)CN([C@@H](C)CO)C(=O)c2cc(NC(=O)Cc3ccccc3)ccc2O1`, the growth inhibition call is “inactive”.

`C[C@@H]1CN([C@H](C)CO)C(=O)CCCn2nncc2CO[C@H]1CN(C)S(=O)(=O)c1ccc(Oc2ccccc2)nc1`: the growth inhibition call was “inactive”.

Regarding `C[C@@H]1CCCCO[C@@H](CN(C)C(=O)Nc2ccc(F)cc2)[C@@H](C)CN([C@@H](C)CO)C(=O)c2cc(NC(=O)C3CCCCC3)ccc2O1`, the growth inhibition call was “inactive”.

For the molecule `O=C(CN1CCOCC1)N[C@H]1CC[C@H](CCn2cc(C3CC3)nn2)O[C@H]1CO`, the growth inhibition call is “inactive”.

In the case of `CO[C@@H]1CN(C)C(=O)c2ccc(NS(C)(=O)=O)cc2OC[C@@H](C)N(C(=O)CN(C)C)C[C@H]1C`, the growth inhibition call is “inactive”.

Take `CN1C2=CC(=O)/C(=N\NC(N)=O)C=C2C[C@H]1S(=O)(=O)O`: the growth inhibition call was “inactive”.

As to `CC=Cc1ccc2n(c1=O)C[C@H]1[C@H](CO)[C@@H](C(=O)NCC3CC3)[C@@H]2N1S(=O)(=O)c1cn(C)cn1`, the growth inhibition call is “inactive”.

Turning to `OCc1ccccc1-n1cncn1`, the growth inhibition call is “inactive”.

`COc1ccc(C(=O)Nc2ccc3c(c2)C(=O)N(C)[C@@H]2CC[C@H](CC(=O)NCC4CC4)O[C@H]2CO3)cc1`: the growth inhibition call was “inactive”.

Turning to `Cc1cc(C)c2cc3c(nc2c1)NCC3`, the growth inhibition call was “inactive”.

Turning to `C[C@H](CO)N1C[C@H](C)[C@H](CN(C)C(=O)Nc2ccccc2)OCCCC[C@H](C)Oc2ccc(NC(=O)Nc3ccccc3)cc2C1=O`, the growth inhibition call is “inactive”.

Take `C[C@H]1CN([C@@H](C)CO)C(=O)c2cc(NS(=O)(=O)c3ccc(Cl)cc3)ccc2O[C@@H]1CN(C)Cc1ccc(-c2ccccc2)cc1`: the growth inhibition call was “inactive”.

As to `C[C@H]1CN([C@@H](C)CO)C(=O)Cc2cc(NC(=O)NC3CCCCC3)ccc2O[C@H]1CN(C)Cc1ccc(Oc2ccccc2)cc1`, the growth inhibition call was “inactive”.

On to `Cc1ccc(S(=O)(=O)N[C@H](C(=O)NCCn2cc(-c3cccc(/C=C/C(=O)NO)c3)nn2)C(C)C)cc1`, for which the growth inhibition call is “inactive”.

Turning to `C[C@H]1CN([C@@H](C)CO)C(=O)c2cccc(NC(=O)C3CCOCC3)c2O[C@H]1CN(C)Cc1ccc2c(c1)OCO2`, the growth inhibition call is “inactive”.

`c1ccc(C2C3=C(CCCC3)SC3=C2CCCC3)cc1`: the growth inhibition call is “inactive”.

Turning to `Cc1ccc(S(=O)(=O)N(C)C[C@@H]2Oc3ccc(NC(=O)c4ccncc4)cc3CC(=O)N([C@@H](C)CO)C[C@@H]2C)cc1`, the growth inhibition call is “inactive”.

With `C[C@@H]1CN([C@H](C)CO)C(=O)c2cc(NC(=O)Nc3ccc(C(F)(F)F)cc3)ccc2O[C@@H](C)CCCCO[C@H]1CN(C)Cc1ccccc1`, the growth inhibition call was “inactive”.

Consider `COC(=O)c1cn(CC(=O)O)nn1`, for which the growth inhibition call was “inactive”.

For the molecule `CC(C)C(=O)O`, the growth inhibition call is “inactive”.

As for `C[C@H]1CN([C@@H](C)CO)C(=O)c2cc(NC(=O)Nc3ccccc3)ccc2O[C@H]1CN(C)Cc1ccc(C(F)(F)F)cc1`, the growth inhibition call is “inactive”.

`C[C@@H]1CN([C@@H](C)CO)C(=O)c2cc(NC(=O)c3ccncc3)ccc2O[C@@H]1CN(C)S(=O)(=O)c1ccc(F)cc1`: the growth inhibition call is “inactive”.

With `COc1cc([C@H]2OC[C@](O)(Cc3ccc(O[C@@H]4O[C@H](CO)[C@@H](O)[C@H](O)[C@H]4O)c(OC)c3)[C@@H]2CO)ccc1O`, the growth inhibition call is “inactive”.

Consider `CC(C)NC(=O)Nc1ccc2c(c1)C(=O)N([C@H](C)CO)C[C@H](C)[C@H](CN(C)S(=O)(=O)c1cn(C)cn1)OCCCC[C@@H](C)O2`, for which the growth inhibition call is “inactive”.

On to `C[C@H](CO)N1C[C@H](C)[C@H](CN(C)S(=O)(=O)c2ccc(F)cc2)Oc2ccc(NC(=O)c3ccncc3)cc2CC1=O`, for which the growth inhibition call was “inactive”.

As for `C[C@@H]1CN([C@H](C)CO)C(=O)c2cc(NC(=O)NC3CCCCC3)ccc2O[C@@H](C)CCCCO[C@@H]1CN(C)C(=O)C1CCCCC1`, the growth inhibition call is “inactive”.

For `CC(C)(C)S(=O)N1Cc2cc(C(=O)NCc3ccc4c(c3)OCO4)nc(-c3cccc(C#CCC4CCCC4)c3)c2[C@@H]1CCO` (some centres not stated), the growth inhibition call is “inactive”.

On to `CCn1c(=O)c(-c2cc(NC(=O)Nc3ccccc3)c(F)cc2Br)cc2cnc(NC)cc21`, for which the growth inhibition call is “inactive”.

Consider `Cn1c(=O)c2c(nc(NCCN)n2C)n(C)c1=O`, for which the growth inhibition call was “inactive”.

Take `COc1ccc(CN(C)C[C@H]2Oc3ccc(NC(=O)CCN4CCOCC4)cc3CC(=O)N([C@H](C)CO)C[C@@H]2C)cc1`: the growth inhibition call was “inactive”.

In the case of `C[C@@H]1CCCCO[C@@H](CN(C)C(=O)C2CCCCC2)[C@@H](C)CN([C@H](C)CO)C(=O)c2cc(NC(=O)Cc3ccccc3)ccc2O1`, the growth inhibition call is “inactive”.

With `C[C@@H]1CN([C@H](C)CO)C(=O)c2cc(NC(=O)c3ccccc3)ccc2O[C@@H](C)CCCCO[C@H]1CN(C)Cc1ccc(C(=O)O)cc1`, the growth inhibition call is “inactive”.
